Test results published in PubChem BioAssay AID686978 (National Center for Advancing Translational Sciences (NCATS), 2013).
Several values for one entry are separate records, joined by “and”; a condition that tells them apart may be missing. Equal values may be shown once. In all, about 420,000 compounds went through this assay and about 64,000 (15%) were called active. This list was built around the results that the source calls inconclusive (neither active nor inactive); the mix of calls is not that of the screen. Calls follow the shape of the dose curve; as a rule, active = well fitted inhibition curve with a large enough effect; inconclusive = small, poorly fitted or top-dose-only effect; inactive = flat fitted curve, though single readings scatter. No potency is given beside an inconclusive call; the fits are too rough.
% is scaled to controls: 0 for no effect and ±100 for the full control effect; potency is read from the fitted curve at half-maximal effect; tags tell the direction and shape of the fitted curve.

Test: qHTS for Inhibitors of human tyrosyl-DNA phosphodiesterase 1 (TDP1): qHTS in cells in absence of CPT; also: nearly all actives have a fitted effect of over 55% in size
Details: DT40 Tdp1-/- hTDP1 cells, no CPT, ATP luminescence, 48 h; activity change, negative = growth inhibition: at 46.2 µM (top of the series) unless noted
Summary of the method: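 Chicken DT40 Tdp1-/- cells complemented with human TDP1, screened without camptothecin (DMSO vehicle only), 400 cells/well. Compounds pin-transferred, cells incubated at 37 °C for at least 48 hr. Growth read as ATP-dependent luminescence (CellTiter-Glo, 30 min at RT).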
In the case of `O=C(NNC(=O)c1ccccc1[N+](=O)[O-])c1csc(N2CCOCC2)n1`, the “activity change, negative = growth inhibition” value was inactive: 4.78%. In the case of `Cc1nc2ncnn2c(N2CCCC(C(=O)Nc3ccc4c(c3)CCC4)C2)c1C` (stereo not drawn), the Potency was active: 23.1 µM. With `CCOc1ccc(N2C(=O)C3C(c4ccccc4)=NN(c4ccccc4)C3C2=O)cc1` (stereo not drawn) the “activity change, negative = growth inhibition” value was inactive: -5.09%. With `CCCCC(CC)C(=O)Nc1cccc(SC)c1` (stereo not drawn) the Potency was inconclusive [inhibitor, single point]. In the case of `CCOc1ccc(OCc2ccc(C(=O)Nc3cc(OC)c(OC)c(OC)c3)o2)cc1`, the Potency was inconclusive [inhibitor, single point]. In the case of `CC(C)c1ccc(-c2noc(SCC(=O)N3CCN(c4ccc(F)cc4)CC3)n2)cc1`, the “activity change, negative = growth inhibition” value was inactive: -16.5%. In the case of `COc1ccc(CNC(=O)COC(=O)Cc2ccc(Cl)cc2Cl)cc1`, the Potency was inconclusive [inhibitor, partial curve]. With `CCOC(=O)C1=CC[C@@H](c2ccncc2)N(S(=O)(=O)c2ccc(C)cc2)C1` the Potency was active: 23.1 µM. With `Cc1ccc(C)c(-n2nnc3ccccc3c2=O)c1` the Potency was inconclusive [inhibitor, single point]. For `O=c1[nH]cc(C(F)(F)F)cc1NS(=O)(=O)c1ccccc1[N+](=O)[O-]`, the “activity change, negative = growth inhibition” value was inactive: -19.2%. With `CCN(C(=O)CSc1ncn[nH]1)c1cccc2ccccc12` the Potency was inconclusive [inhibitor, partial curve]. With `COc1ccccc1N(CC(=O)NC(C)(C)C)S(=O)(=O)c1cccs1` the Potency was inconclusive [inhibitor, partial curve, poor fit]. With `CCOC(=O)C1(Cc2ccccc2Cl)CCN(C(=O)CN2CCOC2=O)CC1` the “activity change, negative = growth inhibition” value was inactive: -6.75%. For `COCCN(C(=O)COC(=O)/C=C/c1ccccc1Cl)c1c(N)n(Cc2ccccc2)c(=O)[nH]c1=O`, the Potency was inconclusive [inhibitor, single point]. For `CN(Cc1ccccc1)C(=O)c1[nH]cnc1C(=O)N[C@@H](CCCCNC(=O)OC(C)(C)C)C(=O)OC(C)(C)C`, the Potency was inconclusive [inhibitor, single point]. For `CCCn1c(=N)n(CC(O)COc2cccc(C)c2)c2ccccc21` (stereo not drawn), the Potency was active: 14.6 µM. For `CCN(CC)CCNc1ncnc2c1cnn2-c1cc(Cl)ccc1C`, the Potency was inconclusive [inhibitor, single point]. For `COCOCCn1cc(CN2CCS(=O)(=O)N(Cc3ccc(-c4ccc(F)nc4)cc3)C(CC(C)C)C2=O)nn1` (stereo not drawn), the Potency was inconclusive [inhibitor, single point]. For `CCOc1ccc(-c2nc(CNC(=O)NC3CCCCC3)c(C)o2)cc1`, the “activity change, negative = growth inhibition” value was inactive: 6.36%. In the case of `CCCCc1c(-c2ccccc2OC)ncn1C1CCCC1`, the Potency was active: 10.3 µM. With `COc1ccc(-n2nnnc2-c2cccc(OC)c2)cc1` the Potency was active: 0.58 µM. With `Cc1ccc(/C=N/NC(=O)c2n[nH]c3c2CCCC3)cc1` the Potency was active: 0.92 µM. For `CCOc1ccc2nc(NC(=O)CSc3nc4cccnc4n3C)sc2c1`, the Potency was active: 3.26 µM. For `OC(c1ccccc1)C(Nc1ccccn1)c1ccccc1` (stereo not drawn), the Potency was inconclusive [inhibitor, single point]. For `COCC(C)n1c(C)cc(C(=O)CSc2ccc(NC(C)=O)cc2)c1C` (stereo not drawn), the Potency was inconclusive [inhibitor, partial curve, poor fit]. For `COc1cc(-c2cc(NC=O)c3ncc(-c4cccc(C(=O)N(C)C)c4)n3c2)cc(OC)c1OC`, the Potency was active: 14.6 µM. With `Cn1c(=O)cc(OCCCC(=O)Nc2ccc3c(c2)OCCO3)c2ccccc21` the Potency was inconclusive [inhibitor, single point]. With `O=C(CN1C(=O)NC2(CCc3ccccc32)C1=O)c1ccc(Br)s1` (stereo not drawn) the “activity change, negative = growth inhibition” value was inactive: 7.96%. In the case of `Cc1ccc(/C=C/C(=O)Nc2cccnc2)o1`, the Potency was inconclusive [inhibitor, single point]. In the case of `Cc1ccc(-c2csc(N(CCc3ccccc3)C(=O)COc3ccccc3)n2)cc1`, the Potency was inconclusive [inhibitor, single point]. In the case of `COc1ccc(N2CCN(C(=O)COc3ccc(S(=O)(=O)N4CCOCC4)cc3C)CC2)cc1`, the Potency was active: 23.1 µM. For `CCNc1ncc2nc(-c3cn(C)c4ccccc34)c(=O)n(C[C@H]3CCCO3)c2n1`, the “activity change, negative = growth inhibition” value was inactive: -3.05%. For `O=C(CN1CCc2ccccc21)NC(=O)NC1CCCCC1`, the Potency was inconclusive [inhibitor, single point]. In the case of `CCN(CC)C1Oc2cc3c(cc2C(c2cc(OC)c(OC)c(OC)c2)C1C)OCO3` (stereo not drawn), the Potency was active: 1.16 µM. For `Cc1nc(/C=C/c2ccccc2)cc(/C=C/c2ccccc2)n1`, the Potency was inconclusive [inhibitor, single point]. In the case of `CNC(=O)c1c(NC(=O)c2ccc(N3C(=O)CCC3=O)cc2)sc2c1CCCC2`, the Potency was inconclusive [inhibitor, single point]. For `CCOC(=O)c1cnc2ccccc2c1Nc1cccc(C(=O)O)c1`, the “activity change, negative = growth inhibition” value was inactive: -3.19%. In the case of `O=C(NCCc1csc(-c2ccc(Cl)cc2)n1)c1ccco1`, the Potency was active: 18.4 µM and active: 14.6 µM. For `COc1ccccc1Cc1c(-c2ccc(OC)c(OC)c2)nc2ccc(C)cn12`, the Potency was active: 23.1 µM. For `COc1ccc(S(=O)(=O)N(Cc2ccccc2)c2ccccc2C(=O)Nc2ccccc2C(=O)NCc2ccco2)cc1`, the Potency was active: 5.8 µM. For `COc1ccc(C2=Nc3ccccc3N(C(=O)c3ccc(C(F)(F)F)cc3)C2C(=O)Nc2c(C)cccc2C)cc1` (stereo not drawn), the Potency was inconclusive [inhibitor, single point]. For `COc1ccc(-c2nnn(CC(=O)NC(=O)NC3CCCCC3)n2)cc1OC`, the Potency was inconclusive [inhibitor, single point]. In the case of `O=C(C1=C[C@H](c2coc3ccccc3c2=O)C[C@H](OCCCCO)O1)N1CCN(Cc2ccc3c(c2)OCO3)CC1`, the Potency was active: 16.4 µM. For `O=C(COC(=O)/C=C/c1ccc2ccccc2n1)NNC(=O)c1ccccc1`, the Potency was active: 25.9 µM. For `COc1ccc(/C=C/C(=O)NCc2cccnc2)cc1`, the “activity change, negative = growth inhibition” value was inactive: -12%. With `CC(=O)c1cccc(OCc2cc(C(=O)N(C)Cc3nccs3)no2)c1` the “activity change, negative = growth inhibition” value was inactive: -32.5%. For `CSc1nccc(-c2cc(Cl)c3c(c2)CC(CNC(=O)c2nonc2C)O3)n1` (stereo not drawn), the Potency was inconclusive [inhibitor, single point]. With `COc1cc(S(=O)(=O)Nc2cccc(C(=O)O)c2)c(OC)cc1Cl` the Potency was inconclusive [inhibitor, full curve]. In the case of `Cc1cc(C)nc(Nc2ccc(N3CCCC3)cc2)n1`, the Potency was inconclusive [inhibitor, partial curve]. With `COc1ccccc1C(=O)N=Nc1c(O)[nH]c2ccc([N+](=O)[O-])cc12` the Potency was active: 23.1 µM. For `Cc1cccc(C(c2sc3nc(-c4ccco4)nn3c2O)N2CCN(Cc3ccccc3)CC2)c1` (stereo not drawn), the “activity change, negative = growth inhibition” value was inactive: -29.5%. With `CCOC(=O)C1(CC2CCCCO2)CCN(Cc2nc3ccccc3nc2C)CC1` (stereo not drawn) the Potency was inconclusive [inhibitor, partial curve, poor fit]. For `O=C(COc1ccc(Cl)cc1Br)NC1CC1`, the Potency was inconclusive [inhibitor, single point]. With `Clc1ccc(C[n+]2cc(-c3ccccc3)n3c2CCCCC3)c(Cl)c1` the Potency was active: 0.259 µM. In the case of `COc1cc(C2CC(=O)c3c([nH]c(C(=O)OCc4ccc(C)cc4)c3C)C2)cc(OC)c1OC` (stereo not drawn), the Potency was active: 0.92 µM. In the case of `COc1cccc(NC(=O)c2ccc3c(c2)C(=O)N(CC2CCCO2)C3=O)c1` (stereo not drawn), the “activity change, negative = growth inhibition” value was inactive: 17.6%. In the case of `Cc1cc(C(=O)CN2CCCCC2)c(C)n1-c1ccc(F)cc1`, the Potency was inconclusive [inhibitor, single point]. For `Cc1ccc(CN(Cc2ccccn2)C(=O)Nc2ccc(C)c(C)c2)cc1`, the Potency was inconclusive [inhibitor, single point]. For `Cc1cccc(C)c1NCc1n[nH]c(=S)n1-c1ccccc1`, the Potency was inconclusive [inhibitor, single point]. For `Cc1ccccc1NC(=O)Cn1c(=O)n(CCCCCC(=O)NCc2ccccc2Cl)c(=O)c2sccc21`, the Potency was inconclusive [inhibitor, partial curve]. For `CC(=O)Nc1ccc(S[C@@H](CCN2CC[C@H](C(C)(C)C)CCC2=O)c2ccccc2)cc1`, the Potency was active: 12.6 µM and active: 18.4 µM. In the case of `CCCc1ccc(C(=O)/C=C/N(C)C)cc1`, the “activity change, negative = growth inhibition” value was inactive: 2.77%. With `COc1cccc(-n2nnc3c(=O)n(CC(=O)OCc4ccccc4)cnc32)c1` the Potency was inconclusive [inhibitor, single point]. In the case of `CCOC(=O)C1C(C(C)=O)=C(c2ccccc2)c2ccccc2N1S(=O)(=O)C(F)(F)F` (stereo not drawn), the Potency was inconclusive [inhibitor, single point]. In the case of `COc1cc(C(=O)Nc2ccc(C)cc2C(NCC(=O)NN)c2ccccc2)cc(OC)c1OC` (stereo not drawn), the “activity change, negative = growth inhibition” value was inactive: 16.8%. For `CCOC(=O)c1c(C)[nH]c(C(=O)OCC(=O)c2ccccc2)c1C`, the Potency was inconclusive [inhibitor, single point]. With `COCCCNC(=O)c1[nH]c2ccccc2c1Sc1ccc(C)cc1` the “activity change, negative = growth inhibition” value was inactive: -29.7%. In the case of `COc1cc(/C=N/Nc2nc(C)nc3c2cnn3-c2ccccc2)ccc1O`, the Potency was active: 2.91 µM. In the case of `Cc1c(Br)c([N+](=O)[O-])nn1C(C)C(=O)Nc1ccc2c(c1)OCO2` (stereo not drawn), the “activity change, negative = growth inhibition” value was inactive: -29.5%. With `CC1CCCCC1Nc1ncnc2sccc12` (stereo not drawn) the Potency was inconclusive [inhibitor, single point]. In the case of `COCCNC(=O)C1CCCN(Cc2ccc(-c3ccccc3)cc2)CC1` (stereo not drawn), the “activity change, negative = growth inhibition” value was inactive: -15.1%. For `CCCN1C2=NCCN2c2cc(C)c(C)cc21`, the Potency was active: 23.1 µM. In the case of `CCS(=O)(=O)N1CCc2cc(C(=O)NCc3ccc(Cl)cc3)ccc21`, the Potency was active: 16.4 µM.
